Laboratory results reported in PMC12136788.
The list shows a part of the results.

B1: ENSG00000109180:stop:overlap|stop_codon|ENSG00000109180|stop_codon|NA|stop_codon (ssRNA)
RNA: GGGAGUUCUACAGUCCGACGAUCCAACAGAGGAAGAAAGGAGAGUCUUCGCAGAAUGCAAUGAUGAAAGCUUCUGGUUCAGAUAGAUGGGGUUUCACCGUGUUAACCAGGAUGGUCUCCAUCUCCUGACCUUGUGAUCCACCUCAACAGAGGAUUGAGCAUCA
B2: chr1:231019617:231019718:-|3pUTR|ENSG00000182118|msi1|FALSE|unique (ssRNA)
RNA: GGGAGUUCUACAGUCCGACGAUCGCAGGGAGUUCUCCGCGGAUGCAUGGUGGCAGUCUGCUUUGAUGGCAGCAGUUUCUGCUUAGGUGACCUAGAGGUCCUCAGCAGUAUCCUCCACACCUAUUUAUUGAGGUGCACCUGCUGCAACAGAGGAUUGAGCAUCA
B3: ENSG00000124766:be:win_3451|3pUTR|ENSG00000124766|bound_else_gene|NA|bound_elsewhere_windowed (ssRNA)
RNA: GGGAGUUCUACAGUCCGACGAUCAGAGGCUUUAAAACUGGUGCAAUUACAGCAAAAAGGGAUUCUGUAGCUUUAACUUGUAAACCACAUCUUUUUUGCACUUUUUUUAUAAGCAAAAACGUGCCGUUUAAACCACUGGAUCUACAACAGAGGAUUGAGCAUCA
B4: chr1:233671823:233671924:+|3pUTR|ENSG00000135750|msi1|total|mutant (ssRNA)
RNA: GGGAGUUCUACAGUCCGACGAUCUGCUGCUGUGGUCCGAAGCAGAUUUUAUACUUUUAACUGGAAACUUUGGGGUUUGCAUUCCGAUCAUUCCGCUGAUGGCUAAACCGCAAAAUUUAUAUUCCGAAGCAAAAAAAAAAAGCACAACAGAGGAUUGAGCAUCA
B5: chr15:90998672:90999054:-|three_prime_utr|ENSG00000184056|control|control|control (ssRNA)
RNA: GGGAGUUCUACAGUCCGACGAUCAUAACCAAGUGUCCACCAACUACCUGCUAAGAGCCGGGAGCAUGGAACGUGUUGGGAUUUAGAGAACAUUAUCUGAGAAAAGAGUUCACUUCCUGCUCCCAGGAUAUUUCUCUUUUCUGUCAACAGAGGAUUGAGCAUCA
B6: ENSG00000124225:stop:overlap|stop_codon|ENSG00000124225|stop_codon|NA|stop_codon (ssRNA)
RNA: GGGAGUUCUACAGUCCGACGAUCCCCUAGAGAGCGCAGCCAUCUGGAGCAAAGAGAAGGAUAAACAGAAAGGACACCCUCUCUAGGGUCCCCAGGGGGGCCGGGCUGGGGCUGCGUAGGUGAAAAGGCAGAACACUCCGCGCUCAACAGAGGAUUGAGCAUCA
B7: ENSG00000070961:be:win_5401|3pUTR|ENSG00000070961|bound_else_gene|NA|bound_elsewhere_windowed (ssRNA)
RNA: GGGAGUUCUACAGUCCGACGAUCCUAUAACUGAGAGUGCUGACCAAGCAAAGAAACAUUUAGUUGAUGGUGCUUGAUAUUUUUGGUGGGUGGGGGAAAUCUUUUUCUCACCAUCAAAUCUUUGCAGUAAUCCUCUGCAGGUCUCAACAGAGGAUUGAGCAUCA
B8: chr3:154315110:154315224:-|CDS|ENSG00000174953|unk|total|mutant (ssRNA)
RNA: GGGAGUUCUACAGUCCGACGAUCUCAGAGAACAAACUUGACAUCCAGGAAAAGAAGUUGAUAAAUCAAGAAAAAAAAAUGUUCCGAAUCAGGAACAGAUCAUAUAUUGACCGAGAUUCUGAGUAUCUCUUGCAAGAAAAUGAACAACAGAGGAUUGAGCAUCA
B9: chr6:38153770:38153871:+|3pUTR|ENSG00000156639|msi1|total|mutant (ssRNA)
RNA: GGGAGUUCUACAGUCCGACGAUCGGUGGACAGGAUCAGGAUUCCCUUGAAAGCCCAGGCAGGGUGAGCAGUCCCAGUGGUCCCCGUGCCGCAUCAGAUCCAGGUGGGUGAGGGCAGGAGGCCCCUGCGGAGGCAGCGUGGAUCCAACAGAGGAUUGAGCAUCA
B10: chr19:1925605:1925706:+|3pUTR|ENSG00000227500|msi1|total|mutant (ssRNA)
RNA: GGGAGUUCUACAGUCCGACGAUCUUUGGACACCCCAGGCUGCCACCCCUCCCCACCCGUUCACCCCCAGGAUGCUGUUGCUGCCGGACGCCUGCUGCCCUGGAGCCCUCCCCAGGAUGUGAGCCAGUCCCCUCGCUGGUACGGCAACAGAGGAUUGAGCAUCA
B11: ENSG00000198589:be:win_4201|CDS|ENSG00000198589|bound_else_gene|NA|bound_elsewhere_windowed (ssRNA)
RNA: GGGAGUUCUACAGUCCGACGAUCGAAGCCUCUGUGACAUUUUUGCAGAGGCUAAUUAGCCUUGUGGAUGUGCUUAUAUUUGCAAGUUCUCUUGGCUUUACUGAAAUUGAAGCUGAAAAAAGUAUGUCAUCUGGAGGAAUUUUGCAACAGAGGAUUGAGCAUCA
B12: chr1:6522505:6522606:-|3pUTR|ENSG00000162408|msi1|total|mutant (ssRNA)
RNA: GGGAGUUCUACAGUCCGACGAUCCUGGGAUUACAGGCGUGAGCCACUGCGCCUGGCCUGAAGCUAUUCUUUACAAAAGCUCUCCGUUUUUGUUUGUUUGUUUGUUUUUUUCUUUUGCGACGGACUCUCUGUCGCCAAGGCUGGCAACAGAGGAUUGAGCAUCA
B13: chr2:30159184:30159288:+|3pUTR|ENSG00000119801|unk|total|mutant (ssRNA)
RNA: GGGAGUUCUACAGUCCGACGAUCAAAAUCUGGGCUGUCCGAGUGAAAAAGUGUGUUUUAUGUCAAUUGUGAAAGGAAAAUGUCCGGAGUAUGGUUUUUAAACUUGGGCUUCAUUUUAAACUUUUUUUUUUAAACCCAGUUAUUCAACAGAGGAUUGAGCAUCA
B14: chr19:4361374:4361475:-|3pUTR|ENSG00000141985|msi1|FALSE|unique (ssRNA)
RNA: GGGAGUUCUACAGUCCGACGAUCCAGGACCCCACACUUGGGUGGGGGGGCUUAUCUGGGUGGGUGGGGAUGCCUGUUUACACUAGCGCUGACUCCCAACGGUGACGGCUCCCUUCCCCACUCCAUGGCGCCAGCCUCCUCCCCCAACAGAGGAUUGAGCAUCA
B15: chr17:81557321:81557422:-|3pUTR|ENSG00000182446|msi1|total|mutant (ssRNA)
RNA: GGGAGUUCUACAGUCCGACGAUCAGCAUUUCCCUUACUCUGAAGUUCCGGCAUUCACAUCAUUCAUGUUUUCUUUUGUCUUUCCGCUAAAGGAAAAGCAUUGGCGAUUUGUCUGAUUCUGGUUUUGAGUUACUCUUUGUUCAGCAACAGAGGAUUGAGCAUCA
B16: chr9:101424453:101424812:-|three_prime_utr|ENSG00000136872|control|control|control (ssRNA)
RNA: GGGAGUUCUACAGUCCGACGAUCGCUUGACUUUCCAACACGGAGAAGCAUUGUUUUCUUUGGGCCAAGAAGGUAUCUACCGAUAGUGUCUAUUAGGCAUUUGAAAAUGUGGCAGUAGAGGUCAGUAUGAGGAUUGAGGCUAGACAACAGAGGAUUGAGCAUCA
B17: chr1:36287001:36287112:+|CDS|ENSG00000054118|unk|total|mutant (ssRNA)
RNA: GGGAGUUCUACAGUCCGACGAUCCCCCUCCAGUCUGUGGUGGUGAGGCGGCGGUCACCCCGUCCCCGCCCCGUGCCAAAACCCCGUCCUCCACUUUCCAGCACAUCCCAGAUGGGCUCAACUCUGCCGAGUGGUGCCGGGUAUCAACAGAGGAUUGAGCAUCA
B18: chr2:216675988:216676089:-|3pUTR|ENSG00000115461|msi1|FALSE|unique (ssRNA)
RNA: GGGAGUUCUACAGUCCGACGAUCACUAAAAUGCAUUCCAUUCCUCUGAAAGCAAAACAAAUUCAUAAUUGAGUGAUAUUAAAUAGAGAGGUUUUCGGAAGCAGAUCUGUGAAUAUGAAAUACAUGUGCAUAUUUCAUUCCCCACAACAGAGGAUUGAGCAUCA
B19: chr2:70149884:70150355:-|three_prime_utr|ENSG00000115998|control|control|control (ssRNA)
RNA: GGGAGUUCUACAGUCCGACGAUCAGAUAAUAAUCUUUUGCUGCUUAAUUUGCACAUCCCCACCCCUUGACAACUUUAAAUGCUAGUUAGGCACUUAGAUGGCCCUGUUCCUUGGUAAACUGCUCUUAGCUAAGAUGCAAAUUCCAACAGAGGAUUGAGCAUCA
B20: chr19:53353201:53353302:+|CDS|ENSG00000213799|msi1|total|mutant (ssRNA)
RNA: GGGAGUUCUACAGUCCGACGAUCCACAAUUCAGCCCUUGAAAUUCAUAAGGCAAUUCAUACUGGAGAAAAACCUUACAAGUGCCGUGAAUGUGGCAAGGUUUUUAACCGAAAAGCAAACCUUUCACGUCAUCACCGACUUCAUCAACAGAGGAUUGAGCAUCA
B21: chr4:16162636:16162738:-|3pUTR|ENSG00000169762|unk|total|mutant (ssRNA)
RNA: GGGAGUUCUACAGUCCGACGAUCACCUUAAAUAAGACAUGAUGAACCGCCGCAUUUUGCCGGGUUAAAAAAAAAUGCUAAACCCGUUUAUUUAUUAAAAAAAUAAUUAAUGAAGGCUAUGCAUUACUGGGAAAAAUCCUUCAUCAACAGAGGAUUGAGCAUCA
B22: chr12:1788447:1788559:+|3pUTR|ENSG00000006831|unk|FALSE|bound_elsewhere (ssRNA)
RNA: GGGAGUUCUACAGUCCGACGAUCUUUCUUUUUUGGCCCUAGGCUGGUUGGGACCUCUACAGCUUCAUUCUUUCACCAUUAAAUAGUGGCCUUUUUCAGUAUUUUCCCUCUUCCCCUUUAUAAAUUAUGCUAAAGCCACAAAGCCAACAGAGGAUUGAGCAUCA

target: T1, UNK ZnF1-6 (called full-length) (human, UniProt Q9C0B0 30-357); assay: nsRBNS (natural sequence RNA bind-n-seq); RBNS binding buffer (assumed for nsRBNS): 25 mM Tris pH 7.5, 150 mM KCl, 3 mM MgCl2, 0.01% Triton X-100, 500 ug/ml BSA, 20 U/ml SUPERase-In, 4 C; UNK is unkempt and MSI1 is Musashi-1; names of the RNAs are library labels; protein concentration not given here; high values mean tight binding
T1 sequence: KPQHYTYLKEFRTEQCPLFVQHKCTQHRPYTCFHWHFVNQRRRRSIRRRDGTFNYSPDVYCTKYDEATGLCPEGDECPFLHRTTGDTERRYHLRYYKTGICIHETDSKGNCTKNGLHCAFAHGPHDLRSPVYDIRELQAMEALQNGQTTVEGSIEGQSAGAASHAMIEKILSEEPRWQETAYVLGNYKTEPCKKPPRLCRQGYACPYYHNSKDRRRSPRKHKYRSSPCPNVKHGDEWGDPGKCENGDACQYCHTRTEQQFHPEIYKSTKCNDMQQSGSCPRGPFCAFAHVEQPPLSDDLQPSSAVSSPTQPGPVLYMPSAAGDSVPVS

| Binder | binding signal |
| --- | --- |
| B1 | 1.36 enrichment R |
| B2 | 0.802 enrichment R |
| B3 | 0.648 enrichment R |
| B4 | 0.403 enrichment R |
| B5 | 0.529 enrichment R |
| B6 | 0.377 enrichment R |
| B7 | 0.749 enrichment R |
| B8 | 0.361 enrichment R |
| B9 | 0.635 enrichment R |
| B10 | 1.35 enrichment R |
| B11 | 0.355 enrichment R |
| B12 | 0.629 enrichment R |
| B13 | 1.06 enrichment R |
| B14 | 0.768 enrichment R |
| B15 | 0.377 enrichment R |
| B16 | 0.642 enrichment R |
| B17 | 0.756 enrichment R |
| B18 | 0.383 enrichment R |
| B19 | 0.502 enrichment R |
| B20 | 0.237 enrichment R |
| B21 | 0.467 enrichment R |
| B22 | 1.29 enrichment R |
